# Assay results from PubChem BioAssay AID488969 (Vanderbilt High Throughput Screening Facility, 2010).
# The full ranking holds about 110,000 compounds; the median of “z-score” is about -0.1, and the highest 2% start at about 2. This is one part of the list. Active and inactive are the calls of the source.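 Rule for the calls: active = z-score in the third read window above 3 or below -3; inactive = the rest.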
# Target: Metabotropic glutamate receptor 8 (Rattus norvegicus) (UniProt P70579)
# Assay: rat mGluR8 modulators via GIRK flux, primary screen, cell-based, thallium flux, HTS (AID 488969)
# Conditions: HEK293 rat mGluR8, GIRK (G protein-gated inwardly rectifying potassium channel) thallium flux, FluoZin2; at 10 µM; stronger effect = higher value; submaximal glutamate (EC20) added with thallium
# UniProt P70579, sequence (P70579 whole entry, looked up): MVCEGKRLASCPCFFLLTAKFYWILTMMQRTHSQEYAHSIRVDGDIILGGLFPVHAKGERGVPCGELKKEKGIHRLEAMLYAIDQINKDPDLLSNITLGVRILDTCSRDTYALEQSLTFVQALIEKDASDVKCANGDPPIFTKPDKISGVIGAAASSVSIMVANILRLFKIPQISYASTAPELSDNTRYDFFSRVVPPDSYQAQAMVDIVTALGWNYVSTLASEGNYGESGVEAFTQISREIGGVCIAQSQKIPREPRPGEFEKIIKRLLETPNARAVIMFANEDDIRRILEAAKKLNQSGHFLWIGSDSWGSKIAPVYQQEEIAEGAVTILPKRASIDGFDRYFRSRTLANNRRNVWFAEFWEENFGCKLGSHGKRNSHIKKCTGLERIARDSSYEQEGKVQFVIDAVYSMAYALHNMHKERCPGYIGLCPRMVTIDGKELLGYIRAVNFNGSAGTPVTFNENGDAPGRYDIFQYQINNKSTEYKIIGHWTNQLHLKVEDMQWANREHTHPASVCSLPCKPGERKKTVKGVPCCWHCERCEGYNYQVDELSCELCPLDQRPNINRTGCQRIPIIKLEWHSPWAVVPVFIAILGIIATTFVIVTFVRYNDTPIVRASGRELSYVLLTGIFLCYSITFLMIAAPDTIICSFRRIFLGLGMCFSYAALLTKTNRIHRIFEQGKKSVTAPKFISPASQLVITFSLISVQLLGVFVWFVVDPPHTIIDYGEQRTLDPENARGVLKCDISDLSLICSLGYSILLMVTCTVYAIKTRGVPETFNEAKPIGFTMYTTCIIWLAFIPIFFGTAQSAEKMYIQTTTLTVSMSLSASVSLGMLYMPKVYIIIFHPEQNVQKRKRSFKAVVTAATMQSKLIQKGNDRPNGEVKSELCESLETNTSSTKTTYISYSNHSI
row,SMILES,z-score
1,CN1C=CC=C/C1=C1\SC(=S)N(c2ccccc2)C1=O,-0.106
2,Cc1cc(OCC(=O)N2CCc3ccccc3C2)c2c(-c3ccccc3)cc(=O)oc2c1,-0.197
3,CC(C)Cn1c(-c2ccco2)n[nH]c1=S,-0.0867
4,Cc1ccc(N2C(=O)C(O)(C(F)(F)F)C3=C2CC(C)(C)CC3=O)cc1 (stereo unspecified),0.237
5,Nc1nc(-c2cccs2)cs1,-0.068
6,COc1ccc(CCNC(=O)CSc2ncn[nH]2)cc1,0.862
7,CCn1c(Cc2ccccc2)nnc1SCC(=O)Nc1nc2ccccc2s1,0.0953
8,Cc1ccc(SCc2[nH]nc3c2C(c2ccc(C)o2)C(C#N)=C(N)O3)cc1 (stereo unspecified),-0.407
9,N=c1sccn1CC(=O)Nc1ccc2c(c1)CCC2,1.96
10,C/C(CC(=O)Nc1ccccn1)=N\NC(=O)Cc1cccc2ccccc12,-0.0604
11,CS(=O)(=O)Nc1nnc(SCC(=O)N(c2ccccc2)c2ccccc2)s1,-0.0733
12,Cc1cc(NS(=O)(=O)Cc2ccccc2)cc(C)c1OCC(=O)N1CCOCC1,-0.188
13,CCc1ccc(-c2nc(CN3CCC(C(=O)NCc4ccc(F)cc4)CC3)c(C)o2)cc1,-0.352
14,N#Cc1ccc(-c2ccc(Cl)cc2)nc1Oc1ccc(F)cc1,-0.78
15,CC1=C(C#N)C(NC(=O)C(C)(C)C)(C(F)(F)F)C(=O)N1 (stereo unspecified),-0.0109
16,Cn1nc(-c2ccc(OCC(=O)Nc3cccnc3)cc2)c2ccccc2c1=O,-0.0224
17,O=S(=O)(Cc1ccccc1)N1CCN(C2Cc3ccccc3C2)CC1,-0.00479
18,CCC(C)c1ccccc1NC(=O)COC(=O)CCc1cc(OC)c(OC)c(OC)c1 (stereo unspecified),-0.481
19,CCOc1ccc(-n2cc(C(=O)Nc3cccc(OC)c3)c3cc(OC)c(OC)cc3c2=O)cc1,-0.195
20,COc1ccc(/C=C(/NC(=O)c2ccc(C)cc2)c2nc3ccccc3[nH]2)cc1OC,-0.124
21,COC(=O)C1=C(C)N(C2CCCC2)C(=O)C1(NC(C)=O)C(F)(F)F (stereo unspecified),-0.225
22,CCCCCn1cnc2sc(CC)cc2c1=O,-0.4
23,COc1ccc(Oc2coc3cc(OCC(=O)N4CCCCC4)ccc3c2=O)cc1,-0.212

row,SMILES,z-score
1,CC1=CC(C)(C)Nc2ccc(OC(=O)CN3C(=O)c4cccc5cccc(c45)C3=O)cc21,-0.208
2,Cc1oc(-c2ccccc2F)nc1CS(=O)(=O)CC(=O)NCCCN1CCc2ccccc2C1,0.0639
3,O=C(c1ccc(F)cc1)N1CCN(c2ccc([N+](=O)[O-])c(N3CCCCC3)c2)CC1,-1.01
4,COc1ccc(C2=NN(CN3C(=O)C(=O)c4ccccc43)C(c3ccc(Br)cc3)C2)cc1 (stereo unspecified),-0.114
5,CSc1cccc(-n2cc(-c3ccc4c(c3)OCO4)[nH]c2=O)c1,0.264
6,CCc1ccc(CCC(=O)Nc2nnc(C)s2)o1,-0.0371
7,CCOC(=S)SCC(=O)N1CCc2ccccc2C1C1C(=O)CCCC1=O (stereo unspecified),-0.248
8,Cc1c(Cc2ccccc2)sc(NC(=O)Cc2ccccc2)c1C(N)=O,0.107
9,CCCc1ccc(Oc2cc(C)nc(N3CCOCC3)n2)cc1,-0.0499
10,Cc1ccc(C)c(S(=O)(=O)N2C(=S)NC(=O)C2CC(C)C)c1 (stereo unspecified),-0.119
11,O=c1cc(Cl)c(-c2ccccc2)n[nH]1,-0.334
12,CC(C)NC(=O)Cn1nnc(-c2ccc(Cl)cc2)n1,0.327
13,Cc1cc(O)c(NC(=S)NC(=O)c2ccc(-c3ccc(Cl)cc3)o2)cc1C,0.116
14,Cn1ncc2c(NNC(=O)c3ccc(Cl)cc3Cl)ncnc21,0.184
15,O=C(Nc1nnc(SCc2ccc(F)cc2)s1)C1Cc2ccccc2CN1C(=O)c1ccco1 (stereo unspecified),-0.161
16,CCCc1nnc(NC(=O)c2cccs2)s1,-0.163
17,Cc1ccc(Nc2cc(=O)n(C3CCCCC3)c(=O)[nH]2)cc1C,0.499
18,COc1cccc(-c2nc3n(n2)C(c2ccc4c(c2)OCO4)C(C(N)=O)=C(C)N3)c1 (stereo unspecified),-1.06
19,Nc1nonc1-c1noc(N2CCOCC2)n1,0.00406
20,COC(=O)Cn1cc(C#N)c2ccccc21,0.0457
21,CCOc1ccc(C(=O)N2CCCC2)cc1OC,-0.394
22,O=C(NC1CCCCC1)c1ccc(CNc2c(N3CCOCC3)c(=O)c2=O)cc1,-0.201
23,CC(C)CCNC(=O)CO/N=C/c1ccccc1OC(F)F,-0.572

row,SMILES,z-score
1,C=CCN=C(NC#N)SCC(=O)NCc1ccccc1,0.0139
2,C#CCSc1nsc(SCC#C)c1C#N,-0.292
3,CC(=O)Nc1cccc(-c2csc(Nc3cccc(C)n3)n2)c1,-0.0514
4,CN=c1sc2ccccc2n1CC(O)COc1ccccc1 (stereo unspecified),0.639
5,CC1CC(C)(C)CC2(C1)NC(=O)N(CC(=O)NCC(c1ccco1)N1CCCCC1)C2=O (stereo unspecified),0.771
6,O=C(Cc1cccc2ccccc12)NN1C(=O)C2C(C1=O)C1C=CC2C12CC2 (stereo unspecified),0.0603
7,CCn1nnnc1SCC(=O)NC1CCCC1,-0.0025
8,O=C1SC(SCc2ccccc2)=N/C1=C\c1ccco1,-0.178
9,CC(C)c1nc2sc3c(NCc4ccco4)ncnc3c2c2c1COC(C)(C)C2,0.296
10,O=C(CSc1nnc(C2COc3ccccc3O2)o1)N1CCCc2ccccc21 (stereo unspecified),-0.448
11,CCC(OC(=O)c1cc2sccc2n1C)C(=O)NCc1ccco1 (stereo unspecified),-0.11
12,O=S(=O)(Nc1nc2ccccc2nc1Nc1cccc(S(=O)(=O)N2CCCCC2)c1)c1ccccc1,-1.71
13,COc1ccc(Cn2nnnc2C(c2cc3cc(C)ccc3[nH]c2=O)N2CCOCC2)cc1 (stereo unspecified),-0.114
14,CCOC(=O)C1=C(C)Nc2sc(C(=O)c3ccc(Br)cc3)c(N)c2C1c1ccc(C(=O)OC)cc1 (stereo unspecified),-0.179
15,CCCCOc1ccccc1Cn1c(=O)oc2ccc(C)cc21,0.822
16,O=C(/C=C/c1ccc(Cl)c([N+](=O)[O-])c1)Nc1ccc(N2CCCC2)cc1,-0.409
17,O=C(CN1C(=O)NC(Cc2c[nH]c3ccccc23)C1=O)Nc1cccc(S(=O)(=O)N2CCCCCC2)c1 (stereo unspecified),0.128
18,CC1CCN(C(=O)COC(=O)[C@H](C)NS(=O)(=O)/C=C/c2ccccc2)CC1,-0.222
19,Cc1ccc([N+](=O)[O-])cc1NC(=S)NC(=O)C(C)(C)C,0.72
20,CC(C)CN(CC(C)C)C(=O)CC(=O)NC(=O)c1ccc(Cl)cc1,0.196
21,Cc1nc(NC(=O)c2ccccc2)nc2cc3c(cc12)OCO3,-0.307
22,CC(C)(C)c1cc(C(F)(F)F)c(C#N)c(=O)[nH]1,-0.922
23,O=C(Nc1cnccn1)c1csc2ccccc12,0.0259

row,SMILES,z-score
1,S=c1nc(-c2ccco2)[nH][nH]1,-0.896
2,COC(=O)c1ccc(C(=O)OC)c(NC(=O)COC(=O)C23CC4CC(CC(O)(C4)C2)C3)c1,-1.04
3,COc1ccc(-n2nnnc2SCC(=O)N2C(C)CCCC2C)c(OC)c1 (stereo unspecified),-0.0118
4,COCCNC(=O)NC1(C(F)(F)F)Oc2ccc(Cl)cc2O1 (stereo unspecified),-0.257
5,C/C(Cl)=C\Cn1c(NCCCn2ccnc2)nc2c1c(=O)n(C)c(=O)n2C,-0.632
6,COc1ccccc1-c1nc(C#N)c(N2CCN(C(c3ccccc3)c3ccccc3)CC2)o1,-0.485
7,COCc1nnc(NC(=O)c2ccc(S(=O)(=O)N3CCCCCC3)cc2)o1,-0.164
8,CCCCN(C)C(=O)c1cn(C)c2ccc(S(=O)(=O)N(C)C)cc2c1=O,-0.337
9,N#Cc1cccc(NC(=O)CSc2ccccc2)c1,0.496
10,Cc1ncc([N+](=O)[O-])n1Cc1cccc2ccccc12,0.0129
11,CCOC(=O)CC1C(=O)NCCN1C(=O)Nc1ccc(Cl)cc1 (stereo unspecified),0.0695
12,C=CCn1c(SCCOC)nc2c1c(=O)[nH]c(=O)n2C,-0.444
13,Cc1nnc(SCc2ccc(C(=O)c3ccc(Cl)cc3)o2)n1-c1ccccc1,-0.404
14,O=C(NC1CCCCC1)n1c(=O)oc2ccccc21,0.121
15,COc1cccc(-c2nnc(SCc3ccccn3)n2C)c1,0.0362
16,O=C(NCc1ccco1)c1nn2c(C(F)(F)F)cc(-c3cccs3)nc2c1Cl,-0.682
17,O=C(O)CSc1nnc(Cc2ccccc2)n1-c1ccccc1,0.405
18,Cc1cc(C(=O)CN2CCC(C)CC2)c(C)n1-c1ccc(F)cc1,0.978
19,CCN(CC)c1ccc(NC(=O)c2ccccc2F)cc1S(=O)(=O)Nc1ccccc1OC,0.0987
20,CSc1nc2ccc(Cl)cc2[nH]1,0.0994
21,CC(=O)NC(CCS(C)(=O)=O)C(=O)Nc1ccccc1Cl (stereo unspecified),-0.34
22,Clc1ccc2oc(-c3ccccn3)nc2c1,-0.361
23,CCCNC(=O)c1ccc2c(c1)C1C3CCC(C3)C1C(c1ccccc1)N2 (stereo unspecified),-0.506

row,SMILES,z-score
1,CC(C)(C)S(=O)c1cccs1 (stereo unspecified),0.555
2,C/C(=N\NC(=O)c1nn(C)cc1Br)c1ccc(NC(=O)c2ccncc2)cc1,-0.19
3,COC(=O)C1=C(C)N(C(C)C)C(=O)C1(NC(C)=O)C(F)(F)F (stereo unspecified),-0.0522
4,CN(CCc1ccccn1)Cc1ccc(Cl)cc1,0.276
5,c1ccc(COc2ccc(OCCCCN3CCCCC3)cc2)cc1,2.79
6,C=CCNC(=S)NNC(=O)c1cccc2ccccc12,0.169
7,CCOCCCNC(=O)c1ccccc1Br,-0.0783
8,O=C(CSc1nc(CCC2CCCC2)nc2ccccc12)NCc1ccc2c(c1)OCO2,active: 8.15
9,N#C/C(=C\c1ccc([N+](=O)[O-])cc1)C(=O)Nc1ccccc1O,-0.211
10,O=c1c(C=Nc2ccc(Oc3ccccc3)cc2)c[nH]n1-c1cccc(Cl)n1,-0.203
11,COc1cc(N=C2C(=O)N3CCCc4cccc2c43)cc(OC)c1,-0.532
12,CCCCN1C(=O)Cc2c1nc(N)c1c(N)nc(N(CCC)CCC)c(C#N)c21,-0.15
13,CCOc1ccccc1NC(=O)COn1nnc2ccc(Cl)cc21,-0.25
14,CCOC(=O)c1c(C)sc2c1N(C(=O)CCl)c1cc(Cl)ccc1S2,-0.0907
15,COc1ccc(S(=O)(=O)N(C)CC(=O)Nc2cccc(C(C)=O)c2)cc1,0.0743
16,CCOC(=O)N1CCC(NC(=O)C2CCN(c3ccc(N4CCOCC4)nn3)CC2)CC1,-0.202
17,O=C(c1ccc(NC2=NC3CS(=O)(=O)CC3S2)cc1)N1CCN(Cc2ccccc2)CC1 (stereo unspecified),-0.164
18,Nc1nc(-c2ccccc2)cc(C(F)(F)F)n1,-0.0256
19,Oc1ccccc1CN1CCCN(Cc2ccccc2O)C1,-2
